Measurements: PubChem BioAssay AID743286 (National Center for Advancing Translational Sciences (NCATS), 2014)
In all, about 1,100 compounds went through this assay and about 340 (31%) were called active. The shares of active, inactive and inconclusive entries below differ from those in the screen. Calls follow the shape of the dose curve; as a rule, active = well fitted inhibition curve with a large enough effect; inconclusive = small, poorly fitted or top-dose-only effect; inactive = flat fitted curve, though single readings scatter. Where the call is inconclusive, the potency comes from a doubtful curve fit.
% is scaled to controls: 0 for no effect and ±100 for the full control effect; potency is read from the fitted curve at half-maximal effect; tags tell the direction and shape of the fitted curve.
Also: nearly all actives have a fitted effect of over 65% in size.

These compounds were tested against Phosphatidylinositol 5-phosphate 4-kinase type-2 alpha (Homo sapiens) (UniProt P48426) (assay: qHTS for Inhibitors of PI5P4K: Confirmation in Primary Assay). Details: PI5P4Kalpha enzyme, ADP-Glo luminescence, 60 min; activity change, negative = inhibition: at 76.9 µM (top of the series).
Chain of UniProt P48426 (P48426 whole entry, looked up): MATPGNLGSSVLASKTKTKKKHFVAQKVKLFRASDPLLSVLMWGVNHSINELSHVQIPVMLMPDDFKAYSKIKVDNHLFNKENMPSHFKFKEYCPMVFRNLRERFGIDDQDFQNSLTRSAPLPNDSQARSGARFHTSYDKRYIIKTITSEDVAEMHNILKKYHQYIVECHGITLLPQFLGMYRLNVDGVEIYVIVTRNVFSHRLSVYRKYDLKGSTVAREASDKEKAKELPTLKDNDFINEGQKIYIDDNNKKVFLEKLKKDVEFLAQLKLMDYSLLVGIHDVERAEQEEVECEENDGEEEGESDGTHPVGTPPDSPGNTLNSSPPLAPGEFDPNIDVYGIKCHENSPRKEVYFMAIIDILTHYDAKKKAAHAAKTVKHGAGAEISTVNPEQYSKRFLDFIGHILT
In short: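 Hits from a qHTS screen were retested in the same PI5P4Kα ADP-Glo format: 5 microM ATP, HEPES pH 7.4 buffer with CHAPS and EGTA, 60 min room-temperature reaction, single end-point luminescence read.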
Cc1cccc(-n2c(SCC(N)=O)nc3c(c2=O)C2(CCCC2)Cc2ccccc2-3)c1 was tested, and the “activity change, negative = inhibition” value was inactive: 3.23%. In the case of O=C(CSc1nc2ccc(Cl)cc2[nH]1)N1CCN(C(=O)c2ccco2)CC1, the Potency is reported as inconclusive: 15.8 µM [inhibitor, partial curve]. With O=C(CSc1nncn1-c1ccccc1)Nc1ccc(N2CCOCC2)cc1 the “activity change, negative = inhibition” value was inactive: -6.25%. CCn1c(=O)[nH]c(=O)c2c(N)c(C(=O)c3cc(F)ccc3F)sc21 was tested, and the Potency was inconclusive: 15.8 µM [inhibitor, partial curve]. For CCOC(=O)C1(C)CCCN(C(=O)c2ccccc2C(F)(F)F)C1 (centres undefined), the “activity change, negative = inhibition” value was inactive: -4.14%. CN(c1ccccc1C(=O)O)S(=O)(=O)c1ccc2c3c(cccc13)C(=O)N2 was tested, and the Potency was inconclusive: 25.1 µM [inhibitor, partial curve]. For N#Cc1ccccc1S(=O)(=O)N1CCN(C(=O)C2COc3ccccc3O2)CC1 (centres undefined), the Potency was inconclusive: 14.1 µM [inhibitor, partial curve]. In the case of Cc1nc(-c2cccc(C(F)(F)F)c2)sc1C(=O)O, the Potency is reported as inconclusive: 31.6 µM [inhibitor, partial curve]. CCc1nnc(NC(=O)CSc2sc3c(O)cc(=O)[nH]c3c2C#N)s1 was tested, and the Potency was active: 12.6 µM. CCC(=O)c1ccc(OCC(=O)N2CCN(S(=O)(=O)c3ccc(Cl)s3)CC2)cc1 was tested, and the Potency was inconclusive: 14.1 µM [inhibitor, partial curve]. With CN(CC(=O)Nc1cccc(F)c1)C(=O)c1cccc(-n2cccc2)c1 the Potency was active: 10 µM. For Cc1ccc(-c2ccc(CN3C(C)C(=O)N(Cc4cn(Cc5ccco5)nn4)CCS3(=O)=O)cc2)c(C)c1 (centres undefined), the Potency was inconclusive: 15.8 µM [inhibitor, partial curve]. O=C(O)c1ccc(-c2nnn(Cc3cccc(C(F)(F)F)c3)n2)cc1 was tested, and the Potency was inconclusive: 20 µM [inhibitor, partial curve]. With O=C(c1ccco1)N1CCN(C(=O)c2ccc(-c3ccc([N+](=O)[O-])cc3)o2)CC1 the “activity change, negative = inhibition” value was inactive: -22.3%. With O=c1cc(-c2ccccc2)[nH]n1-c1nc2ccccc2[nH]1 the Potency was active: 15.8 µM. For N#Cc1ccccc1OCc1cn(CC(=O)c2ccc(O)cc2)nn1, the Potency was inconclusive: 25.1 µM [inhibitor, partial curve]. With CC(C)Cc1c(O)nc(SCC(=O)N2CCCCCC2)[nH]c1=O the Potency was inconclusive: 35.5 µM [inhibitor, partial curve]. For c1ccc2c(OCCCCN3CCOCC3)cccc2c1, the “activity change, negative = inhibition” value was inactive: -1.13%. With O=C(c1ccco1)N(CCC(c1ccccc1)c1ccco1)Cc1ccccc1 (centres undefined) the Potency was inconclusive: 7.94 µM [inhibitor, partial curve]. COc1cc2nc(COc3ccccc3[N+](=O)[O-])oc(=O)c2cc1OC was tested, and the “activity change, negative = inhibition” value was inactive: -3.94%. For CCN(CC)C(=O)c1cc(Cl)ccn1, the Potency was inconclusive: 25.1 µM [inhibitor, partial curve]. For CCc1sc(C(=O)Nc2ccc3c(c2)OCO3)cc1C, the Potency was inconclusive: 14.1 µM [inhibitor, partial curve]. For CCCn1c(N)c(N(CCOC)C(=O)c2cc(-c3ccco3)nc3ccccc23)c(=O)[nH]c1=O, the “activity change, negative = inhibition” value was inactive: -19%. With O=C(CCn1nnc2ccccc21)Nc1nnc(Cc2ccccc2)s1 the Potency was inconclusive: 35.5 µM [inhibitor, partial curve]. With COc1ccc(S(=O)(=O)N2CCN(C(=O)c3cc4c(s3)CCC4)CC2)cc1 the Potency was active: 7.08 µM. For Cc1cc(NC(=O)c2sc(Nc3cccc(C(F)(F)F)c3)nc2N)no1, the Potency was inconclusive: 12.6 µM [inhibitor, partial curve]. O=C(Cn1cnc2scc(-c3ccccc3)c2c1=O)NCc1ccco1 was tested, and the Potency was inconclusive: 15.8 µM [inhibitor, partial curve]. For O=C(Nc1cccc(S(=O)(=O)N2CCOCC2)c1)c1c2c(nc3ccccc13)CCC2, the Potency was inconclusive: 25.1 µM [inhibitor, partial curve]. CCCc1cc(=O)oc2cc(C)c(CN3CCCC3)c(O)c12 was tested, and the Potency was inconclusive: 28.2 µM [inhibitor, partial curve]. In the case of CCOC(=O)C1Nc2ccc(C(F)(F)F)cc2C2C=CCC12 (centres undefined), the Potency is reported as inconclusive: 35.5 µM [inhibitor, partial curve]. For NC(=O)C1CCN(CC(=O)Nc2ccc3c(c2)OCCO3)CC1, the “activity change, negative = inhibition” value was inactive: -1.63%. In the case of Cc1c(C(=O)N2CCN(C(=O)c3ccccc3)CC2)oc2ccc(F)cc12, the Potency is reported as inconclusive: 22.4 µM [inhibitor, partial curve]. COc1ccc(N2CCN(C(=O)c3[nH]c(C(F)(F)F)nc3-c3ccccc3)CC2)cc1 was tested, and the “activity change, negative = inhibition” value was inactive: -2.12%. In the case of CCc1nnc(NC(=O)c2cc(-c3ccc(C)o3)nc3ccccc23)s1, the “activity change, negative = inhibition” value is reported as inactive: -23.9%. With Cc1ccc(Nc2nnc(SCC(=O)NCc3ccco3)s2)cc1 the Potency was inconclusive: 12.6 µM [inhibitor, partial curve]. With CC(=O)Nc1ccc(CNc2nc(NC(C)C)nc3cc(-c4ccccc4)sc23)cc1 the Potency was inconclusive: 31.6 µM [inhibitor, single point]. With O=C(O)COc1ccccc1C(Nc1ccccn1)c1cc(Cl)c2cccnc2c1O (centres undefined) the Potency was inconclusive: 31.6 µM [inhibitor, partial curve]. In the case of CCN1CCN(Cc2ccc(NC(=O)c3ccc(C)c(NC(=O)c4cc(-c5ccc(Br)cc5)n[nH]4)c3)cc2C(F)(F)F)CC1, the Potency is reported as active: 28.2 µM. In the case of Cc1cc(C)c2nc(-c3ccccn3)cc(C(=O)Nc3ccc(S(=O)(=O)Nc4onc(C)c4C)cc3)c2c1, the Potency is reported as active: 8.91 µM. COc1cccc(CNC(=O)CN2c3cccc4cccc(c34)S2(=O)=O)c1 was tested, and the Potency was inconclusive: 7.94 µM [inhibitor, partial curve]. In the case of Cc1ccc(NC(=O)c2c3c(nc4ccccc24)CCC3)cc1S(=O)(=O)N(C)C, the Potency is reported as inconclusive: 14.1 µM [inhibitor, partial curve]. O=C(CSc1nc(=O)n2cc(Cl)ccc2n1)Nc1ccc2c(c1)OCCO2 was tested, and the Potency was inconclusive: 28.2 µM [inhibitor, partial curve]. In the case of CCOC(=O)N1CCN(C(=O)CCS(=O)(=O)c2ccc3c(c2)CCN3C(=O)CC)CC1, the “activity change, negative = inhibition” value is reported as inactive: 4.08%. COCCNc1nc(NCC2CCCCC2)c2sc(-c3ccccc3)cc2n1 was tested, and the Potency was inconclusive: 28.2 µM [inhibitor, partial curve].
